Data on one compound can be found in patent US8492383B2 (Jewish General Hospital, priority 2002, dated 2013).

This assay relates to WSU cell line. The conditions noted are these: drug alone, MTT 72 hours, mean of three independent experiments ± SE.

“And” between values parts separate entries of the source, which are not always exact repeats. Equal entries are not always repeated.

Take `O=C(O)CCCc1ccc(N(CCCl)CCCl)cc1` [CLB, chlorambucil]: the LD50 is 34 µM and 34.00 ± 2.82 µM.
